The supplement of paper PMC9151546
Most values come without repeats; read them as rough.

Tests used:
[1] = tested on: CHO-K1; experiment: hypodiploid nuclei frequency (% of nucleated events); higher = more hypodiploid events (aneugenic)
Procedure: (§1)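 Flow-cytometric in vitro micronucleus assay (Litron MicroFlow) in CHO-K1 cells in 96-well plates, 19 concentrations (4.5-200 µM, n=1 per concentration). Without S9, cells were exposed for 24 h and sampled at 48 h. With Aroclor 1254-induced rat liver S9, cells were exposed for 3-4 h and sampled at 27-28 h. Read-outs are %MN and %hypodiploid nuclei relative to nucleated events, and relative survival as the nuclei-to-bead ratio versus the 1% DMSO vehicle control (x100).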

[2] = tested on: CHO-K1; experiment: micronucleus frequency (% of nucleated events); higher = more micronuclei (genotoxic)
[3] = tested on: CHO-K1; experiment: relative survival (nuclei to bead ratio vs DMSO control) (% of vehicle control); higher = more surviving cells
Procedure: as §1
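Throughout, for hypodiploid nuclei frequency (% of nucleated events): hypodiploid nuclei gated on a flow cytometer with 488 nm excitation after SYTOX Green staining, cultures at 37 °C, positive controls vinblastine without S9 and cyclophosphamide with S9.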
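Throughout, for micronucleus frequency (% of nucleated events): cells lysed with nuclei stained by SYTOX Green, then micronucleus-gated events counted against nucleated events by flow cytometry with 488 nm excitation.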
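Throughout, for relative survival (nuclei to bead ratio vs DMSO control): Lysed-cell nuclei stained with SYTOX Green and counted against counting beads by flow cytometry at 488 nm excitation, with vinblastine (no S9) and cyclophosphamide (plus S9) as positive controls.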

OCCCl [2-Chloroethanol]
Conditions	hypodiploid nuclei frequency, [1] [%]	micronucleus frequency, [2] [%]	relative survival, [3]
concentration: 4.48 (µM), S9 metabolic activation: with S9, exposure time: 3-4 hours	0.22	1.14	59.2
concentration: 4.48 (µM), S9 metabolic activation: without S9, exposure time: 24 hours	0.6	1.78	83.2
concentration: 5.6 (µM), S9 metabolic activation: with S9, exposure time: 3-4 hours	0.22	1.26	71.2
concentration: 5.6 (µM), S9 metabolic activation: without S9, exposure time: 24 hours	0.54	1.46	89
concentration: 7 (µM), S9 metabolic activation: with S9, exposure time: 3-4 hours	0.3	1.2	61
concentration: 7 (µM), S9 metabolic activation: without S9, exposure time: 24 hours	0.9	1.68	104
concentration: 8.75 (µM), S9 metabolic activation: with S9, exposure time: 3-4 hours	0.16	0.86	83.1
concentration: 8.75 (µM), S9 metabolic activation: without S9, exposure time: 24 hours	0.68	1.62	105
concentration: 10.9 (µM), S9 metabolic activation: with S9, exposure time: 3-4 hours	0.28	1.56	76.8
concentration: 10.9 (µM), S9 metabolic activation: without S9, exposure time: 24 hours	0.56	2.06	93.6
concentration: 13.7 (µM), S9 metabolic activation: with S9, exposure time: 3-4 hours	0.22	1.36	88
concentration: 13.7 (µM), S9 metabolic activation: without S9, exposure time: 24 hours	0.88	1.86	87.2
concentration: 17.1 (µM), S9 metabolic activation: with S9, exposure time: 3-4 hours	0.3	1.44	90.2
concentration: 17.1 (µM), S9 metabolic activation: without S9, exposure time: 24 hours	0.58	1.48	87.2
concentration: 21.4 (µM), S9 metabolic activation: with S9, exposure time: 3-4 hours	0.4	2.04	92.6
concentration: 21.4 (µM), S9 metabolic activation: without S9, exposure time: 24 hours	0.6	1.12	103
concentration: 26.7 (µM), S9 metabolic activation: with S9, exposure time: 3-4 hours	0.34	1.18	82.2
concentration: 26.7 (µM), S9 metabolic activation: without S9, exposure time: 24 hours	1.04	1.88	115
concentration: 33.4 (µM), S9 metabolic activation: with S9, exposure time: 3-4 hours	0.24	1.44	82.7
concentration: 33.4 (µM), S9 metabolic activation: without S9, exposure time: 24 hours	0.66	2.34	93.6
concentration: 41.7 (µM), S9 metabolic activation: with S9, exposure time: 3-4 hours	0.24	1.68	91.3
concentration: 41.7 (µM), S9 metabolic activation: without S9, exposure time: 24 hours	0.74	2.14	95
concentration: 52.2 (µM), S9 metabolic activation: with S9, exposure time: 3-4 hours	0.26	1.38	76.6
concentration: 52.2 (µM), S9 metabolic activation: without S9, exposure time: 24 hours	0.62	1.84	98.1
concentration: 65.2 (µM), S9 metabolic activation: with S9, exposure time: 3-4 hours	0.28	1.16	64
concentration: 65.2 (µM), S9 metabolic activation: without S9, exposure time: 24 hours	0.84	1.8	111
concentration: 81.5 (µM), S9 metabolic activation: with S9, exposure time: 3-4 hours	0.38	2	86.9
concentration: 81.5 (µM), S9 metabolic activation: without S9, exposure time: 24 hours	0.82	2.48	126
concentration: 102 (µM), S9 metabolic activation: with S9, exposure time: 3-4 hours	0.26	1.68	80.2
concentration: 102 (µM), S9 metabolic activation: without S9, exposure time: 24 hours	0.72	2.68	102
concentration: 127 (µM), S9 metabolic activation: with S9, exposure time: 3-4 hours	0.22	1.3	91.8
concentration: 127 (µM), S9 metabolic activation: without S9, exposure time: 24 hours	1.14	2.3	111
concentration: 159 (µM), S9 metabolic activation: with S9, exposure time: 3-4 hours	0.4	1.14	108
concentration: 159 (µM), S9 metabolic activation: without S9, exposure time: 24 hours	1.42	2.7	111
concentration: 199 (µM), S9 metabolic activation: with S9, exposure time: 3-4 hours	0.36	1.38	94.2
concentration: 199 (µM), S9 metabolic activation: without S9, exposure time: 24 hours	1.4	2.5	100

Oc1ccccc1Cl [2-Chlorophenol]
Conditions	hypodiploid nuclei frequency, [1] [%]	micronucleus frequency, [2] [%]	relative survival, [3]
concentration: 4.5 (µM), S9 metabolic activation: with S9, exposure time: 3-4 hours	0.21	1.09	71.6
concentration: 4.5 (µM), S9 metabolic activation: without S9, exposure time: 24 hours	0.6	1.96	110
concentration: 5.63 (µM), S9 metabolic activation: with S9, exposure time: 3-4 hours	0.18	1.28	76.9
concentration: 5.63 (µM), S9 metabolic activation: without S9, exposure time: 24 hours	0.5	1.22	127
concentration: 7.04 (µM), S9 metabolic activation: with S9, exposure time: 3-4 hours	0.26	0.82	53.3
concentration: 7.04 (µM), S9 metabolic activation: without S9, exposure time: 24 hours	0.54	1.62	120
concentration: 8.8 (µM), S9 metabolic activation: with S9, exposure time: 3-4 hours	0.12	1.16	75.5
concentration: 8.8 (µM), S9 metabolic activation: without S9, exposure time: 24 hours	0.62	1.22	102
concentration: 11 (µM), S9 metabolic activation: with S9, exposure time: 3-4 hours	0.16	1.48	65.3
concentration: 11 (µM), S9 metabolic activation: without S9, exposure time: 24 hours	0.6	1.4	116
concentration: 13.7 (µM), S9 metabolic activation: with S9, exposure time: 3-4 hours	0.15	1.73	85.4
concentration: 13.7 (µM), S9 metabolic activation: without S9, exposure time: 24 hours	0.66	1.44	123
concentration: 17.2 (µM), S9 metabolic activation: with S9, exposure time: 3-4 hours	0.24	1.74	83.6
concentration: 17.2 (µM), S9 metabolic activation: without S9, exposure time: 24 hours	0.5	1.42	134
concentration: 21.5 (µM), S9 metabolic activation: with S9, exposure time: 3-4 hours	0.34	1.63	72.8
concentration: 21.5 (µM), S9 metabolic activation: without S9, exposure time: 24 hours	0.62	1.56	102
concentration: 26.8 (µM), S9 metabolic activation: with S9, exposure time: 3-4 hours	0.16	1.56	111
concentration: 26.8 (µM), S9 metabolic activation: without S9, exposure time: 24 hours	0.64	0.82	117
concentration: 33.6 (µM), S9 metabolic activation: with S9, exposure time: 3-4 hours	0.32	1	81.8
concentration: 33.6 (µM), S9 metabolic activation: without S9, exposure time: 24 hours	0.46	1.24	107
concentration: 41.9 (µM), S9 metabolic activation: with S9, exposure time: 3-4 hours	0.28	1.58	91.6
concentration: 41.9 (µM), S9 metabolic activation: without S9, exposure time: 24 hours	0.6	1.08	114
concentration: 52.4 (µM), S9 metabolic activation: with S9, exposure time: 3-4 hours	0.2	1.44	86.4
concentration: 52.4 (µM), S9 metabolic activation: without S9, exposure time: 24 hours	0.68	1.7	122
concentration: 65.5 (µM), S9 metabolic activation: with S9, exposure time: 3-4 hours	0.09	1.29	58.8
concentration: 65.5 (µM), S9 metabolic activation: without S9, exposure time: 24 hours	0.68	1.84	117
concentration: 81.9 (µM), S9 metabolic activation: with S9, exposure time: 3-4 hours	0.24	1.22	83.7
concentration: 81.9 (µM), S9 metabolic activation: without S9, exposure time: 24 hours	0.9	1.82	105
concentration: 102 (µM), S9 metabolic activation: with S9, exposure time: 3-4 hours	0.2	1.76	70.3
concentration: 102 (µM), S9 metabolic activation: without S9, exposure time: 24 hours	0.62	2.08	106
concentration: 128 (µM), S9 metabolic activation: with S9, exposure time: 3-4 hours	0.3	2.21	58.3
concentration: 128 (µM), S9 metabolic activation: without S9, exposure time: 24 hours	1.52	3.58	103
concentration: 160 (µM), S9 metabolic activation: with S9, exposure time: 3-4 hours	0.28	1.78	75
concentration: 160 (µM), S9 metabolic activation: without S9, exposure time: 24 hours	1.12	1.72	119
concentration: 200 (µM), S9 metabolic activation: with S9, exposure time: 3-4 hours	0.37	2.95	71.3
concentration: 200 (µM), S9 metabolic activation: without S9, exposure time: 24 hours	1.04	2.34	86.3
